From PubChem BioAssay AID504332 (National Center for Advancing Translational Sciences (NCATS), 2011)
Several values for one entry are separate records, joined by “and”; a condition that tells them apart may be missing. Identical values can stand only once. The campaign covered roughly 350,000 compounds. About 31,000 (8.9%) were called active. The shares of active, inactive and inconclusive entries below differ from those in the screen. Calls follow the shape of the dose curve; as a rule, active = well fitted inhibition curve with a large enough effect; inconclusive = small, poorly fitted or top-dose-only effect; inactive = no such curve, though single readings can be large or run the other way. Where the call is inconclusive, the potency comes from a doubtful curve fit. Some structures have more than one record in an assay (separate samples or runs), and their calls can disagree.

The molecules below were run against Histone-lysine N-methyltransferase EHMT2 (Homo sapiens) (UniProt Q96KQ7) (assay: qHTS Assay for Inhibitors of Histone Lysine Methyltransferase G9a). Conditions: G9a H3K9 monomethylation, AlphaScreen, 2 h; activity, negative = inhibition: at 59 µM (top of the series) unless noted.
How it was run: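 AlphaScreen detection with an anti-monomethyl H3K9 antibody quantified product after a 2 h room-temperature reaction containing 500 nM biotinylated H3K9 peptide, 20 µM SAM and 20 nM enzyme, which had been preincubated 15 min with compound.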
% is scaled to controls: 0 for no effect and ±100 for the full control effect; potency is read from the fitted curve at half-maximal effect; tags tell the direction and shape of the fitted curve.
Also: nearly all actives have a fitted effect of over 75% in size.

Sequence of UniProt Q96KQ7 (Q96KQ7 whole entry, looked up): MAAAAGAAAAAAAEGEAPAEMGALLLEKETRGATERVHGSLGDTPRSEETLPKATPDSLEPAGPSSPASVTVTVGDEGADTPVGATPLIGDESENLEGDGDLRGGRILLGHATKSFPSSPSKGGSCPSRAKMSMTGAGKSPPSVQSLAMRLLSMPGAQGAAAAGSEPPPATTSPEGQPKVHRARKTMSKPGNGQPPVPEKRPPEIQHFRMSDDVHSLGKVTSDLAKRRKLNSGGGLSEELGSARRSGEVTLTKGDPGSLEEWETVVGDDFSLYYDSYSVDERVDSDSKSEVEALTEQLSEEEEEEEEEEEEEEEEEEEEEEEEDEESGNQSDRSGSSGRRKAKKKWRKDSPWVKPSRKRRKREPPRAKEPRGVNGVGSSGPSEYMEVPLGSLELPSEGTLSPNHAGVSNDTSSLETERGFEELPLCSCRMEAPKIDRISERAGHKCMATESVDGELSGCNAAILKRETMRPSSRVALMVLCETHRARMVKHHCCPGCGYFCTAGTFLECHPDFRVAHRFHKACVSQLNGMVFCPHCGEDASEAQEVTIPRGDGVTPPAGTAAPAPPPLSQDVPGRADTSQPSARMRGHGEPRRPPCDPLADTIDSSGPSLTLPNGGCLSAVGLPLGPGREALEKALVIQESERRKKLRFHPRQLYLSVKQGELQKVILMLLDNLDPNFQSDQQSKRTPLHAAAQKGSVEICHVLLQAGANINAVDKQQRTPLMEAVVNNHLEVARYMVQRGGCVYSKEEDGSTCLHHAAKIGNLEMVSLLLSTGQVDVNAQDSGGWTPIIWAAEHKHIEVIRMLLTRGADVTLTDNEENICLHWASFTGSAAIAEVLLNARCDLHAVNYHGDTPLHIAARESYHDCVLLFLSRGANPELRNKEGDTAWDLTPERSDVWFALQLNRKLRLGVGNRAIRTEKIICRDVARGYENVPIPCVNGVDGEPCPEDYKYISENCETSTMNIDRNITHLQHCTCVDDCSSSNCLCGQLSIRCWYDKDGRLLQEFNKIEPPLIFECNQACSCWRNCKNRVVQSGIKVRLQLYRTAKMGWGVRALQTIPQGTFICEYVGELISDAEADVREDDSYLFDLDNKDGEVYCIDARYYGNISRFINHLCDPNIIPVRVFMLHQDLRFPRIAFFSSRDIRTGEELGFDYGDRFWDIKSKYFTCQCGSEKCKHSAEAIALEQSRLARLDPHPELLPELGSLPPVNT

Structure (SMILES) | Potency | activity, negative = inhibition
O=C(NCCc1ccccc1)c1ccc2c(c1)N(Cc1ccccc1)C(=O)c1ccccc1S2(=O)=O | inactive | –
COc1cc(S(=O)(=O)N2CCCCCC2)ccc1-n1cnnn1 | inconclusive: 6.31 µM [inhibitor, single point] | –
COCC(C)Nc1nc(C)c(C(C)=O)s1 (centres undefined) | active: 44.7 µM | –
CC(Cc1ccccc1)NC(=O)CSc1nc2nc3c(cc2c(=O)n1-c1ccccc1)COC(C)(C)C3 (centres undefined) | – | inactive: 34.5% [at 12.7 µM]
C=CCN1CCCC1CNC(=O)c1cc(S(N)(=O)=O)cc(OC)c1OC (centres undefined) | – | inactive: -0.0528% [at 12.7 µM]
CCN(CC)S(=O)(=O)c1cccc2nsnc12 | inconclusive: 79.4 µM [inhibitor, partial curve, poor fit] | –
COc1ccc2oc(C(=O)OCC(=O)N(C)Cc3ccccc3)c(C)c2c1 | – | inconclusive: -77.4% [inhibitor] [at 2.33 µM]
CC1Cc2ccccc2N1C(=O)COC(=O)c1ccc(Br)o1 (centres undefined) | inconclusive: 1.41 µM [inhibitor, single point] | –
CC1=NN(c2ccccc2C(=O)O)C(=O)C1N=Nc1ccccc1 (centres undefined) | active: 44.7 µM | –
CCOc1cc(/C=C2\C(=O)N(CCC#N)N=C2C)ccc1OCC(N)=O | active: 70.8 µM | –
O=C(Nc1cc(C(=O)N2CCOCC2)ccc1N1CCCC1)c1cccs1 | inconclusive: 1.12 µM [inhibitor, single point] | –
O=C(Nn1c(O)c(C=C2N=c3ccccc3=N2)sc1=S)c1ccccc1 | active: 1.41 µM | –
C=CCOc1ccc(C(=O)/C=C2/C(=O)Nc3ccccc32)cc1 | inconclusive: 70.8 µM [inhibitor, partial curve, poor fit] | –
COc1ccc(-c2cc3nc(C)c(CCC(=O)N4CCN(c5ccc(F)cc5)CC4)c(C)n3n2)c(OC)c1 | inconclusive: 12.6 µM [inhibitor, partial curve, poor fit] | –
Cc1ccc(Nc2nc3ccccc3c3nnc(C)n23)c(C)c1 | inactive | –
CC1=C/C(=N\OS(=O)(=O)c2ccccc2)C(C(C)C)=CC1=O | active: 8.91 µM | –
COc1ccc(NS(=O)(=O)c2cccc(C(=O)NCCc3ccc(S(N)(=O)=O)cc3)c2)cc1 | – | inactive: 9.68% [at 12.7 µM]
CCCCC#Cc1nc(NC)c2ncn([C@@H]3O[C@H](CO)[C@@H](O)[C@H]3O)c2n1 | inconclusive: 18.9 µM [inhibitor, partial curve, poor fit] | –
Cc1cccc(NC2=NC(C)(C)N=C(N)N2)c1C | inactive | –
CC(Nc1cc(N2CCN(C(=O)C(C)(C)C)CC2)ccc1[N+](=O)[O-])c1ccccc1 (centres undefined) | inconclusive: 28.2 µM [inhibitor, full curve] | –
O=C(/C=C/c1ccccc1)NCc1ccco1 | inconclusive: 0.794 µM [inhibitor, partial curve, poor fit] | –
CCn1c(SCc2cccc(C(F)(F)F)c2)nnc1-c1ccco1 | inconclusive: 39.8 µM [inhibitor, single point] | –
CCOC(=O)C1(CCCc2ccccc2)CCN(C(=O)CCC2=NNC(=O)CC2)CC1 | inconclusive: 89.1 µM [inhibitor, single point] | –

Structure (SMILES) | Potency | activity, negative = inhibition
CCOC(=O)/C(N=Nc1cc(C(=O)O)cc(C(=O)O)c1)=C(\O)CCl | inconclusive: 39.8 µM [inhibitor, single point] | –
COc1ccc(NC(=O)c2c(C)oc3ccc(O)c(CN4CCN(Cc5ccccc5)CC4)c23)cc1Cl | inconclusive: 20 µM [inhibitor, partial curve, poor fit] | –
COc1ccc(-c2c[n+]3c4n2CCCCC4=C(c2ccccc2)C3)cc1 | active: 14.1 µM | –
CC(=O)c1cccc(Nc2cc(C)nc3nc(Cc4ccccc4)nn23)c1 | inconclusive: 12.6 µM [inhibitor, partial curve] | –
COC(=O)c1ccccc1C(=O)c1cccc2ccccc12 | inactive | –
Cc1cccc(NC(=O)CN2CCN(CC(=O)NCC3(N4CCCCC4)CCCCC3)CC2)c1C | inconclusive: 89.1 µM [inhibitor, partial curve, poor fit] | –
CN(Cc1ccccc1)C(=O)CC(=O)N(C)Cc1ccccc1 | inactive | –
CCn1c(C(=O)N2CCc3ccccc3C2)cc2sccc21 | active: 50.1 µM | –
COc1ccc2cc(-c3nnc(Nc4ccccc4)s3)c(=O)oc2c1 | inactive | –
CCN(CC)C(=O)N1CCN(C)CC1 | active: 14.1 µM | –
Cc1ccccc1NC(=O)Cc1nc(COC(=O)c2ccc(Cl)c(S(N)(=O)=O)c2)cs1 | inconclusive: 63.1 µM [inhibitor, partial curve, poor fit] | –
Cc1nn(Cc2ccc(F)cc2)c(C)c1NC(=O)c1cc2ncc(Br)cn2n1 | inconclusive: 70.8 µM [inhibitor, single point] | –
COc1ccc(-n2nc(C(=O)Nc3ccc(Cl)cn3)c3c4ccccc4n(C)c3c2=O)cc1 | inactive | –
O=C(Nc1cccc(C(F)(F)F)c1)N1CC2CCCN2c2ccccc21 (centres undefined) | inconclusive: 4.47 µM [inhibitor, partial curve, poor fit] | –
CCOC(=O)N1CCN(C(=O)CCNS(=O)(=O)c2cc(Br)cnc2N)CC1 | inconclusive: 89.1 µM [inhibitor, single point] | –
Cc1ccc(S(=O)(=O)N/N=C\c2ccc(C)o2)cc1 | inconclusive: 20 µM [inhibitor, single point] | –
C(=C\c1ccccc1)/CSc1nnc(-c2ccncc2)n1Cc1ccco1 | inconclusive: 20 µM [inhibitor, single point] | –
CC(C)c1ccc(NC2CCCN(C(=O)c3cccs3)C2)cc1 (centres undefined) | active: 50.1 µM | –
CCn1c(N)c(C(N)=O)sc1=S | inconclusive: 3.16 µM [inhibitor, single point] | –
CCOC(=O)c1c(C)n(-c2ccccc2)c2ccc(OC(=O)c3cccc(C)c3)cc12 | inconclusive: 39.8 µM [inhibitor, single point] | –
Cc1cccc(C)c1NC(=S)/C(=C(\[O-])c1cccs1)[n+]1ccccc1 | active: 7.94 µM | –
CC(=O)c1cc(-c2ccc(F)cc2)n(CC(=O)NC2CCC(C)CC2)c1C (centres undefined) | inactive | –
CN(Cc1ccccc1)S(=O)(=O)c1ccc2[nH]c3c(c2c1)CCCCC3 | inconclusive: 17.8 µM [inhibitor, partial curve, poor fit] | –

Structure (SMILES) | Potency | activity, negative = inhibition
CCN1CCN(C(c2ccc(C)cc2)c2c(O)cc(C)n(Cc3ccco3)c2=O)CC1 (centres undefined) | inconclusive: 39.8 µM [inhibitor, single point] | –
O=[N+]([O-])c1ccc(Cl)c(CN2CCSCC2)c1 | inconclusive: 39.8 µM [inhibitor, single point] | –
CCCS(=O)(=O)N1CCN(Cc2ccc([N+](=O)[O-])cc2)CC1 | active: 2.24 µM | –
Cc1ccccc1NC(=O)Cn1cccc1 | inconclusive: 79.4 µM [inhibitor, partial curve, poor fit] | –
COc1cc(OC)c(N(C)C(=O)c2cn(C3CCCC3)c(=O)c3c2c2ccccc2n3C)cc1Cl | inconclusive: 20 µM [inhibitor, partial curve, poor fit] | –
Nc1ccc(N=Nc2ccccc2)c(N)n1 | active: 11.2 µM | –
O=c1[nH]c(CN2CCN(c3ccccc3Cl)CC2)nc2ccsc12 | inconclusive: 11.2 µM [inhibitor, partial curve, poor fit] | –
Cc1ccc(OCc2nnc(SCC(=O)N3C(C)CCCC3C)o2)cc1 (centres undefined) | inactive | –
C=CCNc1nc(N)c(C(=O)Nc2cc(C)on2)s1 | inconclusive: 35.5 µM [inhibitor, single point] | –
Cc1cc(C(=O)NP(=O)(N2CC(C)OC(C)C2)N2CC(C)OC(C)C2)c(C)n1C1CC1 (centres undefined) | active: 44.7 µM | –
COC(=O)N1C(=O)[C@](CC(C)C)(c2ccccc2)N1C(=O)OC | active: 79.4 µM | –
O=C(/C=C/c1ccco1)Nc1ccc(N2CCCC2)cc1 | active: 0.891 µM | –
OCc1ccc(O)c2ncccc12 | – | inactive: 1.15% [at 0.501 µM]
c1csc(-c2cnc3n2CCCC3)c1 | inconclusive: 89.1 µM [inhibitor, single point] | –
Clc1cccc(Cl)c1-c1nnc2cccc(Cl)n12 | inconclusive: 22.4 µM [inhibitor, single point] | –
CN(C)c1ccc(/C=N/NC(=O)c2ccccc2Cl)cc1 | active: 39.8 µM | –
COc1ccc(-c2nc(Cn3c(SCc4ccccc4F)nc4ccncc43)c(C)o2)cc1OC | inconclusive: 6.31 µM [inhibitor, partial curve, poor fit] | –
Cc1ccc(S(=O)(=O)Nc2nc3n(n2)C(c2ccccc2Cl)C=C(c2ccccc2)N3)cc1 (centres undefined) | inconclusive: 22.4 µM [inhibitor, partial curve, poor fit] | –
Cc1ccc(NC(=O)Cn2nc(C)c([N+](=O)[O-])c2C)cc1Cl | inconclusive: 79.4 µM [inhibitor, partial curve, poor fit] | –
Clc1cccc(-c2ccc(C=Nc3ccc(N4CCOCC4)cc3)o2)c1Cl | active: 14.1 µM | –
COc1ccc(N2CCCC2)c(NC(=O)c2ccc([N+](=O)[O-])o2)c1 | inconclusive: 10 µM [inhibitor, partial curve, poor fit] | –
Cc1snc(SCC(=O)c2ccc(Cl)cc2)c1C#N | active: 20 µM | –
CN(Cc1ccccc1)C(=O)C1CCN(S(=O)(=O)c2ccc3nc4c(c(C(=O)O)c3c2)CCCC4)CC1 | inconclusive: 25.1 µM [inhibitor, single point] and inconclusive: 50.1 µM [inhibitor, partial curve, poor fit] | –
